Sequences with one replicate were seen in a single cluster, so their values are uncertain.
System: ATP
Experiment: switch fluorescence ratio, 500 uM ATP over buffer (Cy3 cluster intensity, sum of 5 cycles each) (fold (ratio)); higher = stronger signal-on switching upon ATP binding; sequences stand for … in TCGTCGGCAGCGTCAGATGTGTATAAGAGACAGTTTTTTTTTTTTTTTTTTTTTTTTT…TC
Details: aptamer strand: ATP DNA aptamer (quencher-CACCTGGGGGAGTATTGCGGAGGAAGG + anchor), 100 nM annealed; ATP concentration: 500 uM; one replicate
Procedure, shortened: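 The quencher-labelled ATP aptamer, at 100 nM, was annealed to Cy3-labelled switching-strand clusters on a modified Illumina MiSeq flow-cell. The clusters were imaged in selection buffer, then after 15 min with 500 uM ATP at 22 °C, and this buffer/ATP cycle ran five times with NaOH stripping and re-annealing between runs. Per-cluster fluorescence ratios, summed target-cycle over summed buffer-cycle Cy3 intensity, were averaged per switch-domain sequence. Clusters outside 100-1000 RFU were excluded.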
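Further: ATP exposure 15 min at 22 °C before imaging.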

| Sequence | switch fluorescence ratio |
| --- | --- |
| CCAGGCTACG | 1.05 |
| GGACAGCGA | 1.06 |
| GAATCAAAGT | 0.987 |
| CTCGACGACC | 1.47 |
| CGAGCGCCCC | 1.11 |
| GGTAGGGTAG | 1.02 |
| TTCGTATACG | 1.03 |
| GGGTCTGTTT | 0.948 |
| CCAATCAGGA | 0.979 |
| CCTTACATGG | 1.01 |
| TGGGTCGCAG | 0.973 |
| TCTTGATATG | 1.02 |
| GGTGTTGCCG | 1.09 |
| AAAATAAGCT | 1.04 |
| GCATACCTGA | 1.06 |
| GATGGGGTAC | 1.05 |
| TCCGCAATAA | 1.26 |
| GCCTGGAATA | 1.06 |
| ACGGAATACG | 3.61 |
| GCTAATTAGC | 0.968 |
| CCTCGAGCTG | 1.96 |
| TTATTGCTTG | 0.993 |
| CAGGACGGTG | 0.98 |
| AGCCTCGGGG | 0.947 |
| CGTCGTTAAC | 1.14 |
| TACGTGCGCA | 1.08 |

| Sequence | switch fluorescence ratio |
| --- | --- |
| TAGGTCGCAC | 1.01 |
| CTTCGCGACG | 1.24 |
| ACGCCATGAT | 1.14 |
| TCATTTGAG | 1.04 |
| TTACGTACGC | 1.54 |
| GGAAAGGGTA | 0.969 |
| CGCCAGGTAA | 1.21 |
| AGTCCGCTTT | 1.78 |
| CTCTGGGCGA | 1.1 |
| TGATGTACAT | 0.984 |
| GCAGCGCCGT | 0.995 |
| ATAACGCGTA | 0.997 |
| AATGGAGACT | 1.19 |
| AAATGAACGT | 0.968 |
| TTCGACTACT | 1.16 |
| CTATATGCCA | 0.981 |
| GATCTCTAAT | 0.973 |
| CTGACATTGG | 0.985 |
| GCGACGAAGA | 1.08 |
| TCCTAGTACC | 1.03 |
| TTCGTGAGAA | 0.958 |
| GGACATTCAT | 0.984 |
| GGGCCATCCC | 0.975 |
| GGGTGGTAG | 1.02 |
| TTTTAAAGT | 1.01 |
| GATTGATTCA | 0.941 |

| Sequence | switch fluorescence ratio |
| --- | --- |
| ACGACCCGTT | 1.13 |
| TACGGCAGC | 1.07 |
| CCGCTATGAG | 3.07 |
| ATTCGCCTTC | 1.16 |
| GATTGACCTT | 1.15 |
| ATGTAAAGGG | 1.03 |
| CGATTGGATA | 1.01 |
| CGCGAGCCGC | 0.986 |
| GAGGAAGTAG | 1.02 |
| CAACTTACAG | 1.12 |
| GGTAATGTTG | 1.01 |
| TTTCACCATT | 0.974 |
| CCGACCACT | 3.17 |
| GCGTTTTAAG | 1.02 |
| ATCATTGGAA | 0.966 |
| TCATCAGCG | 1.09 |
| ACTCATTGTC | 1.07 |
| TAGGGGGTA | 0.995 |
| GATGTGCCGT | 1.07 |
| GTTGAGGCAC | 1.01 |
| CATTTCTCCA | 1.6 |
| AACAGGTAAA | 1.03 |
| TTCGCATTG | 1.02 |
| GTAATCGCTT | 0.978 |
| AGAGCAGCCT | 1.05 |

— the supplement of paper PMC10126150
